# Over roughly 110,000 compounds, “z-score” has its median near -0.1; the highest 2% begin near 2. The list shows a part of the results. Calls of active or inactive are those of the source.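 How the source made its calls: active means z-score in the third read window above 3 or below -3; inactive means the rest.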
# Target: Metabotropic glutamate receptor 8 (Rattus norvegicus) (UniProt P70579)
# Experiment: mGluR8 Gi/Go-coupled signaling modulation – cell-based, rat, thallium flux, HTS, primary screen (AID 488969)
# Details: HEK293 rat mGluR8, GIRK (G protein-gated inwardly rectifying potassium channel) thallium flux, FluoZin2; at 10 µM; stronger effect = higher value; submaximal glutamate (EC20) added with thallium
# Sequence of UniProt P70579 (P70579 whole entry, looked up): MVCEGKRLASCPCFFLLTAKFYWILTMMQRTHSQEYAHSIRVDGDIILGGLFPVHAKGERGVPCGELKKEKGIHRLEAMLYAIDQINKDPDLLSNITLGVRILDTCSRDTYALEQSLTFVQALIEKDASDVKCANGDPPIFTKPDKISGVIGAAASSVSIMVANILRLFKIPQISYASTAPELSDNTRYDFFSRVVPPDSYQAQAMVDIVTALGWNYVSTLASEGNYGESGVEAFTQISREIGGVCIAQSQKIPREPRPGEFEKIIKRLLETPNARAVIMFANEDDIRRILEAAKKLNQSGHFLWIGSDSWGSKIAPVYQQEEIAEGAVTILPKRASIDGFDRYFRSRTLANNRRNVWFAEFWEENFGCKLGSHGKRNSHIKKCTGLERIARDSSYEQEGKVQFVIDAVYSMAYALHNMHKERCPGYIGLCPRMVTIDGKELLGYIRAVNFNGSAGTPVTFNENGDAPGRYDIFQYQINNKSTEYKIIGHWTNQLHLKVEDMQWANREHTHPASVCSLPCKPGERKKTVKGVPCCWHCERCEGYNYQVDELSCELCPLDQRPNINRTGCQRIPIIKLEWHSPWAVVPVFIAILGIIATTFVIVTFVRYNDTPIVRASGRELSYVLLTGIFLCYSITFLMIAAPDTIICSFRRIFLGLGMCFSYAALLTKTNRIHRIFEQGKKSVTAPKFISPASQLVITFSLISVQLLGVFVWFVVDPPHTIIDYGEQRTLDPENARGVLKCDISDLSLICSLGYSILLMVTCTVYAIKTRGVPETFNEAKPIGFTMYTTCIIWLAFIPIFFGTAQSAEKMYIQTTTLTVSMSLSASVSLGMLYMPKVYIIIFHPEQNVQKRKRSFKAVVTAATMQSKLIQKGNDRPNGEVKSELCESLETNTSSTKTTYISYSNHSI
row,SMILES,z-score
1,CC(=O)Nc1cccc(C(=O)OC(C(=O)c2ccc(C)c(C)c2)c2ccccc2)c1 (stereo not drawn),-0.114
2,Cc1cc2c3c(c1C)C1(C(=O)N3C(C)(C)CC2C)C(C#N)=C(N)Oc2n[nH]c(C)c21 (stereo not drawn),0.0461
3,CCOC(=O)CC(NC(=O)c1cc2cc(Cl)cc(Cl)c2oc1=O)c1cccc([N+](=O)[O-])c1 (stereo not drawn),0.273
4,CCOC(=O)c1ccc2[nH]c3c(c2c1)CN(C)CC3,-0.323
5,O=C(Nc1ncc(Cc2cccc(Cl)c2)s1)c1ccc([N+](=O)[O-])cc1,-0.0217
6,CC1=Nn2c(nc3sc4c(c3c2=O)CCCC4)SC1,-0.324
7,CCCCN(CCCC)C(=O)c1cc2ccccc2c(=O)o1,-0.247
8,COCC(=O)Nc1ccc([N+](=O)[O-])cc1C,2.3
9,Cc1c(NC(=O)C2(c3ccc(Cl)cc3)CCCC2)c(=O)n(-c2ccccc2)n1C,-0.385
10,CC(C)CCn1nnnc1C(C(C)C)N1CCC(C(N)=O)CC1 (stereo not drawn),0.914
11,O=C(C1CC(c2ccc(F)cc2)=NO1)N1CCc2ccccc2C1 (stereo not drawn),-0.63
12,Cc1ccc(NC(=S)N/N=C/c2ccc(OCCC(C)C)cc2)c(C)c1,0.599
13,COCCOC(=O)C1=C(C)NC(=S)NC1/C=C/c1ccccc1 (stereo not drawn),0.0589
14,CCCOC(=O)Nc1ccc(S(=O)(=O)Nn2cnnc2)cc1,0.519
15,COc1ccc(C2=NN(C)C(=NCc3ccccc3)SC2)cc1,0.247
16,O=c1cc(O)c2c(=O)n(-c3ccccc3)c3c(c2o1)CCCCC3,-0.286
17,CCNc1ccc(S(=O)(=O)N(C)C)cc1NCC(=O)Nc1c(F)cccc1F,0.108
18,C=CCNC(=O)CN(c1ccc(F)c(Cl)c1)S(C)(=O)=O,-0.135
19,CSc1nc(N)nc(SCC(=O)C(C)(C)C)c1C#N,-0.104
20,O=S(=O)(NCc1ccco1)c1ccc(S(=O)(=O)N2CCCCC2)cc1,-0.0699
21,CC1=CC(C)(C)Nc2ccc(OS(=O)(=O)c3ccc(C)cc3)cc21,-0.187
22,O=S1(=O)CCN(Cc2ccccc2Cl)CC1,0.055
23,Fc1ccc(CN2CCN(c3ncccn3)CC2)cc1,-0.0123

row,SMILES,z-score
1,Cn1c(=O)c(C(=S)NC(=O)C2CC2)c(N)n(Cc2ccccc2)c1=O,0.362
2,O=C(COC(=O)c1cc(-c2cccs2)nc2ccccc12)NCc1ccco1,-1.09
3,COC(=O)c1sc(NC(=O)c2cc3c(s2)CCCC3)nc1C,-0.0712
4,O=C1SC(c2ccccc2)=N/C1=C/c1ccco1,0.0802
5,O=C(Nc1ccc(Br)cc1)c1ccc(Br)c(S(=O)(=O)Nc2cccnc2)c1,-0.273
6,Cc1ccc(C(C)C)c(OCc2ccc(-c3nnco3)cc2)c1,0.696
7,COc1ccc(Nc2nnc(C)c(=O)[nH]2)cc1,-0.104
8,CCC(CO)n1cnnc1-c1ccncc1 (stereo not drawn),0.347
9,CN1C(=O)C(O)(C2COC(C)(C)CC2=O)c2ccccc21 (stereo not drawn),-1.06
10,O=C(O)C1CCCN1C(=O)c1cccs1 (stereo not drawn),0.319
11,COc1ccccc1C(=O)n1nc(C)cc1C,-0.428
12,Cc1ccsc1C(=O)OCC(=O)N1CC(=O)Nc2ccccc21,-0.081
13,CCC(C)NC(=O)CN1C(=O)CC(C)(C)S(=O)(=O)c2ccccc21 (stereo not drawn),active: 4.26
14,COCCn1c(SCc2ccc(C(=O)OC)o2)nnc1-c1c[nH]c2ccccc12,0.184
15,COc1cc(/C=N/Nc2nc(C)cc(C)n2)ccc1OC(=O)c1ccco1,-0.738
16,COC(=O)c1cnn(C(=O)c2ccccc2Br)c1N,0.0132
17,Cc1ccc(OCc2cn3cccnc3n2)cc1,0.0265
18,Cc1ccc(/C=C/C(=O)Nc2cc(=O)n(C)c(=O)n2C)o1,-0.19
19,CC(=O)N1CCc2cc(C(=O)CN3CCC(C)CC3)ccc21,-0.0445
20,CCCCN(CCCC)S(=O)(=O)c1ccc(NC(=O)c2ccc([N+](=O)[O-])cc2Cl)cc1,active: 3.01
21,COc1ccc(N2CC(=O)N(c3ccccc3)C2=S)cc1,-0.224
22,O=C(Nc1nncs1)c1ccc(Br)c(S(=O)(=O)N2CCCC2)c1,-0.0849
23,Cc1ccc(OCc2nc(C#N)c(NCc3ccco3)o2)cc1,-0.912

row,SMILES,z-score
1,OCCCCNCc1ccc(OCc2ccc(Cl)cc2Cl)cc1,1.19
2,O=C(CN1CCN(c2ccccc2)CC1)N1CCc2[nH]c3ccccc3c2C1,-0.185
3,CC(CCc1ccccc1)NC(=O)c1ccncc1 (stereo not drawn),-0.0978
4,O=C(NCc1ccc(N2CCCC2=O)cc1)Nc1ccccc1,0.218
5,O=[N+]([O-])c1cccc(-c2n[nH]c(=S)n2Cc2ccccc2)c1,-0.309
6,O=C(NCC1CCCO1)c1ccc(CS(=O)(=O)c2c(Cl)cccc2Cl)o1 (stereo not drawn),-0.0453
7,CCCC(=O)N1CCN(c2ccc(NC(=O)c3cc4ccccc4o3)cc2)CC1,-0.583
8,CCC(=O)n1nc(-c2ccco2)nc1SCc1ccccc1,-0.247
9,O=C(O)CSc1nc(SCc2ccccc2Cl)nc2c1CCCC2,-0.369
10,Cc1noc(C)c1S(=O)(=O)N1CCC(C(=O)N2CCN(c3ccc(F)cc3)CC2)CC1,-0.488
11,CCOc1cc(C(=O)Nc2c(C)ccc3nsnc23)cc(OCC)c1OCC,-0.748
12,Clc1ccc(-c2noc(CSc3nnc(-c4ccncc4)n3-c3ccccc3)n2)cc1,-0.517
13,Cc1c(Cl)cccc1NC(=O)c1cc(C2CC2)on1,-0.0765
14,O=C(CSc1nnc(-c2ccc(S(=O)(=O)N3CCOCC3)cc2)o1)c1ccccc1F,0.206
15,Cc1cc(N2C(=O)C3C4c5ccccc5C(c5ccccc54)C3C2=O)no1 (stereo not drawn),-0.47
16,Cc1ccc(-c2nnc3c(C(F)(F)F)nc4ccccc4n23)cc1,0.374
17,CCOC(=O)c1cc2cc(CC(=O)c3ccc(OCC)cc3O)ccc2o1,-0.146
18,O=C(NC(c1ccccc1)c1ccccc1)C1CCCC1,-0.48
19,COc1cccc(NC(=O)C(NCC(C)(C)CN(C)C)c2ccccc2)c1 (stereo not drawn),0.656
20,CCCCCC(=O)OC(CN1CCCCC1)CN1CCCC1=O (stereo not drawn),0.0115
21,COc1ccccc1CN(Cc1cc2cc3c(cc2[nH]c1=O)OCCO3)Cc1nnnn1Cc1ccco1,-0.31
22,O=C(NCCC1=CCCCC1)c1ccc([N+](=O)[O-])cc1,-0.734
23,N#Cc1c(/N=C/c2cc3ccccc3s2)sc2c1CCC2,-0.0332

row,SMILES,z-score
1,CC1=C(C(=O)NCc2ccco2)C2(CCC(C)CC2)OC1=O (stereo not drawn),0.426
2,CC(=O)Oc1ccc2c(C)c(CC(C)O)c(=O)oc2c1 (stereo not drawn),0.386
3,Nc1cccc(Cl)c1N1CCOCC1,0.479
4,O=C1c2ccccc2C(Nc2ccc(S(=O)(=O)N3CCOCC3)cc2)N1Cc1ccco1 (stereo not drawn),-0.228
5,CCOC(=O)N1CCN(S(=O)(=O)c2ccc(C(=O)Nc3ccc4c(c3)C(=O)NC4=O)cc2)CC1,-0.209
6,CCOc1ccccc1C(=O)Nc1cccc(-c2nnc(-c3ccccc3)o2)c1,-0.449
7,CN(C)N1C(N)=C(C#N)C(c2cccc3ccccc23)C2=C1CC(c1ccccc1)CC2=O (stereo not drawn),-0.215
8,COc1ccc(Cn2c(CCC(=O)N3CCN(c4ccccn4)CC3)nc3ncccc3c2=O)cc1,-0.518
9,CCCCN(C(=O)Nc1ccc(OCC)cc1)C1CCN(C(C)=O)CC1,-0.227
10,COC(=O)c1ccc(CSc2nccn2C)cc1,-0.554
11,Cn1c(=O)c2c(nc(CN3CCN(C(=O)c4ccco4)CC3)n2Cc2ccc(F)cc2)n(C)c1=O,-0.082
12,O=C(NCCN1CCN(Cc2ccccc2)CC1)C1c2ccccc2C(=O)N2CCc3ccccc3C12 (stereo not drawn),-0.21
13,c1ccc(-c2nnc(SCc3cn4ccsc4n3)o2)cc1,-0.506
14,Cc1ccc(S(=O)(=O)/N=C2/NC(=O)/C(=C\c3ccco3)S2)cc1,1.46
15,O=C(CC12CC3CC(CC(C3)C1)C2)N/N=C/c1ccncc1,0.194
16,Cc1[nH]c(=O)[nH]c(=O)c1S(=O)(=O)N(C)Cc1ccccc1,-0.445
17,O=C(N/N=C/c1ccccc1F)c1ccc(COc2ccccc2Cl)o1,-0.397
18,CS(=O)(=O)N1CCN(Cc2ccccc2C(F)(F)F)CC1,-0.195
19,CN(Cc1cccs1)c1ncnc2sccc12,-0.917
20,CCN1CCN(CC(=O)Nc2cc(C)c(C)cc2[N+](=O)[O-])CC1,-0.454
21,CCNC(=O)CC1SC(=Nc2cccc(Cl)c2C)N(C)C1=O (stereo not drawn),0.271
22,O=C(CCN1CCOCC1)Nc1ccccc1,0.275
23,Cn1c(=O)c2c(nc(SCC(=O)N3CCCCCC3)n2C)n(C)c1=O,-0.147

row,SMILES,z-score
1,CCOC(=O)N1CCC(N(CCCOC)C(=O)Nc2cccc(OC)c2)CC1,0.0606
2,Cc1cccc(NCC(O)Cn2cnc3c2c(=O)n(C)c(=O)n3C)c1 (stereo not drawn),0.151
3,CC1(C)Cc2c(sc(/N=C/N3CCCC3)c2C#N)C(C)(C)N1,0.168
4,O=c1c(Cc2ccccc2)c(O)nc2n1CCS2,-0.373
5,CCCCCC(C)n1[nH]c(=O)cc1N (stereo not drawn),-0.135
6,CN1CCN(S(=O)(=O)c2cccc(S(=O)(=O)c3ccc(Cl)cc3)c2)CC1,0.2
7,CC(C)c1nc(N2CCOCC2)c(C#N)c2c1CCC2,0.532
8,CCCc1cc(=O)[nH]c(SCc2cccc(C)c2)n1,-0.763
9,CC1(C)OC(c2ccccc2)=C/C(=C/C=Nc2ccccc2)O1,-0.134
10,CC1=NN(c2ccccc2)C(=O)C1N=Nc1ccc(N)cc1 (stereo not drawn),-0.073
11,O=C(NCc1cccs1)C1CC(c2ccccc2O)=NO1 (stereo not drawn),-0.098
12,CCOC(=O)c1ccccc1NC(=O)Cc1sc(-c2cccnc2)nc1-c1ccc(C)cc1,-0.0425
13,CN(C)c1ccc(NC(=O)/C=C/c2c(Cl)cccc2Cl)cc1,-0.479
14,O=C(CSc1nc2c(c(C(F)(F)F)n1)CCc1ccccc1-2)NCc1ccco1,-0.601
15,O=C(CCC1N=C2c3ccccc3N=C(SCc3cccc(Cl)c3)N2C1=O)NCc1ccco1 (stereo not drawn),-0.138
16,Fc1ccc(CN2C3=NCCCN3c3ccccc32)cc1,-0.37
17,COc1ccccc1C(=O)NNC1CC(=O)N(c2ccc3c(c2)OCCO3)C1=O (stereo not drawn),-1.97
18,Cc1cc(/C=C2\NC(=O)N(Cc3ccc(Cl)cc3)C2=O)c(C)n1C,0.00862
19,Cn1cnnc1SCC(=O)Nc1c(F)cc(F)cc1Br,-0.0427
20,COc1ccc(NC(=O)c2ccc(-n3cccn3)nc2)cc1,-0.017
21,COc1ccc(C(CNC(=O)c2ccc3c(c2)C(=O)N(CCC(C)C)C3=O)N2CCOCC2)cc1 (stereo not drawn),0.332
